Consider 7 molecules from PMC3963969.

Protein sequences, listed by entry. Tags and fused reporters are not part of them. Lines headed by an entry give the natural chain unless they say otherwise; changes in a name come on top.
UniProt Q02099: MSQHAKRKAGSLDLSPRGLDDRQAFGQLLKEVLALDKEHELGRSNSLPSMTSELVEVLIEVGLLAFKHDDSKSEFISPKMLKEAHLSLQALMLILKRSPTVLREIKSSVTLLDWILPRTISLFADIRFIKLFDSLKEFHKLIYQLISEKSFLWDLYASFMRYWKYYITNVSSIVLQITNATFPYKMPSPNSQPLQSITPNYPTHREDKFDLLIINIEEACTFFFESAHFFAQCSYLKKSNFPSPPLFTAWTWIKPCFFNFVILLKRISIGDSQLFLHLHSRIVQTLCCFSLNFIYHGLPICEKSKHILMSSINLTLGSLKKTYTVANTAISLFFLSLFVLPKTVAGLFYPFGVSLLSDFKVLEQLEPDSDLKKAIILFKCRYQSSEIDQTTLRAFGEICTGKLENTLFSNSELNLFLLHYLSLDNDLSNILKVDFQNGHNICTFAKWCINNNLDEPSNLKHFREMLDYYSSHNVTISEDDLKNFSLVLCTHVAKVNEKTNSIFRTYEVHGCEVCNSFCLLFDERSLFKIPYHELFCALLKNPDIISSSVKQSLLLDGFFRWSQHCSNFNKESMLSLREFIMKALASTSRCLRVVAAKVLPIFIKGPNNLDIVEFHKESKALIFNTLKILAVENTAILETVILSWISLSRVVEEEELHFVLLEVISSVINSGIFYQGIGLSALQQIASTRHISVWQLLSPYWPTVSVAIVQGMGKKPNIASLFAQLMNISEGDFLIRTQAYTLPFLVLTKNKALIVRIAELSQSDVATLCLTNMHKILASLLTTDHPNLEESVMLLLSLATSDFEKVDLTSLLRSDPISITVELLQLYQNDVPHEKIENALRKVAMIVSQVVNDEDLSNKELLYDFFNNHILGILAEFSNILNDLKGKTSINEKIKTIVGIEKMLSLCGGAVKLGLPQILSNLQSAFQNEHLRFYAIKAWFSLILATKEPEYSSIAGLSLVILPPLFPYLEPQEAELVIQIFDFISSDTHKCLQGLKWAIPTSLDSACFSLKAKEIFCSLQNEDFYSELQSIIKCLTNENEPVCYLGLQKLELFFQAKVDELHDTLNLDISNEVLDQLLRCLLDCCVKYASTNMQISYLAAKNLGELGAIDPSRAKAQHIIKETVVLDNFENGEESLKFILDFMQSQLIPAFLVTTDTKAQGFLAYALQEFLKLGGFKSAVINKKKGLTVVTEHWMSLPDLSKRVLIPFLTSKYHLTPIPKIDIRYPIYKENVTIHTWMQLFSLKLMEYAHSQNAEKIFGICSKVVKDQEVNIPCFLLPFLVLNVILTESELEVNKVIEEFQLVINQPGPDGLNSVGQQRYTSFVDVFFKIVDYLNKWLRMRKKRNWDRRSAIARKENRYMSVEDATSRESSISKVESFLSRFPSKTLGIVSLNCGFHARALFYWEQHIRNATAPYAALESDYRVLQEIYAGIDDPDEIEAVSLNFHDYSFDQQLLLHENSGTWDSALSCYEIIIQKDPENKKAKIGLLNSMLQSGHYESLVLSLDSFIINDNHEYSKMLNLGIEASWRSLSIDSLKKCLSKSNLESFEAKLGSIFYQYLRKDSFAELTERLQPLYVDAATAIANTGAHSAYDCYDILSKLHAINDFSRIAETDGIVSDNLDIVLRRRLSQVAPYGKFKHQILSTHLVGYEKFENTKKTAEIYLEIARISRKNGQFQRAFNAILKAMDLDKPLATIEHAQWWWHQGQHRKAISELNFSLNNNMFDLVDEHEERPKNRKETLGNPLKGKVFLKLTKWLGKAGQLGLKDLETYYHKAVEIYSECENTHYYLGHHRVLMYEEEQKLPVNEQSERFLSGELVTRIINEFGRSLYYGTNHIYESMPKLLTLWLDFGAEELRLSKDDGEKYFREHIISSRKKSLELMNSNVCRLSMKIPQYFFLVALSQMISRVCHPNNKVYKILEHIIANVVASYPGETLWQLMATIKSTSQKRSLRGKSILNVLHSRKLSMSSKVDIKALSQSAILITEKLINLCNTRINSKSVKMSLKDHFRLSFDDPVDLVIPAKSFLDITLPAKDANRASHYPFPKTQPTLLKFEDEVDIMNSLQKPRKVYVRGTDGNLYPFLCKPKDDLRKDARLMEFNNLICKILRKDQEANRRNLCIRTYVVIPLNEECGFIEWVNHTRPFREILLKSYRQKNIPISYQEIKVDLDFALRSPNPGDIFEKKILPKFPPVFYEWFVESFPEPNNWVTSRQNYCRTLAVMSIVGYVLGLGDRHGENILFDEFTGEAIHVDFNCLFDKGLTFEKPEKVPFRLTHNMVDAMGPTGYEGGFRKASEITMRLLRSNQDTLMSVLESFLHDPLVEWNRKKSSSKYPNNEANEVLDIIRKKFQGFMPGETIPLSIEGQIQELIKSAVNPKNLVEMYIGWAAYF

For one assay, the target named is T1, Rad26-Flag (S. pombe) (UniProt P36632).
T1 sequence: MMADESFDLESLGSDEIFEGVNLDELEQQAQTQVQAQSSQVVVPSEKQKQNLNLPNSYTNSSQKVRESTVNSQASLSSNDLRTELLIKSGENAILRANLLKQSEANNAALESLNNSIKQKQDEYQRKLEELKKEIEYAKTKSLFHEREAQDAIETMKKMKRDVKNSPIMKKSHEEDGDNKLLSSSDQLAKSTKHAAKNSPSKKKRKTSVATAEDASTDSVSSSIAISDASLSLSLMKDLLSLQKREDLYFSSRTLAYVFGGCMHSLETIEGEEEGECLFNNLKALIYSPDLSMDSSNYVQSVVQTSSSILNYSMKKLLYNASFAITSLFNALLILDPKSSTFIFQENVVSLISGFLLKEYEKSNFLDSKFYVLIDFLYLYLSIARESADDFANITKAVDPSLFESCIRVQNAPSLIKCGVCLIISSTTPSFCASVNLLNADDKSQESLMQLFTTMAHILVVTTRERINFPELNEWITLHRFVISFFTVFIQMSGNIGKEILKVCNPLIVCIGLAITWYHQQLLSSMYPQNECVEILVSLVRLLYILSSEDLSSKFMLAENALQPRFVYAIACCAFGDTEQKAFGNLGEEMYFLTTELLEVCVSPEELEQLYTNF
Put plainly: co-IP; Rad3-Rad26-Flag from S. pombe cell extract on anti-Flag M2 antibody beads, washed in TBS-T, eluted with Flag peptide; Rad3 detected with anti-HA, Rad26 with anti-Flag.

Assay [1] has as its target T2, HA-Rad9, phosphorylated at Thr412 (S. pombe) (UniProt P26306).
T2 sequence (chain, phosphothreonine at 412 (detected with the phospho-specific antibody)): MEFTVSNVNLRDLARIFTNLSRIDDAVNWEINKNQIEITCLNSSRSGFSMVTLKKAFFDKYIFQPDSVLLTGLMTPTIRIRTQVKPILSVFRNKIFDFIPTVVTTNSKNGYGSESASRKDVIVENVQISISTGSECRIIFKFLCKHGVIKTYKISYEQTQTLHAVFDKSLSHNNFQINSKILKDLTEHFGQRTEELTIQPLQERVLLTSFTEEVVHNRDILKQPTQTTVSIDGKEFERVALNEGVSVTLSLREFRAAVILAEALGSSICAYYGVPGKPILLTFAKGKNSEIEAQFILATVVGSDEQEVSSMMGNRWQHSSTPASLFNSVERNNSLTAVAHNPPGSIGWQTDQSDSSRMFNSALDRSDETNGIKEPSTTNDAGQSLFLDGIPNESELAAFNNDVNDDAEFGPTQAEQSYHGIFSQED
Put plainly: condition: only after λ phosphatase treatment of the beads; co-IP; Rad4 co-IPed with Rad9 from HU-treated cells on anti-HA antibody beads; beads then treated with λ phosphatase with or without phosphatase inhibitor and washed.

The next assay addresses T3, HA-Crb2 (S. pombe) (UniProt P87074).
T3 sequence: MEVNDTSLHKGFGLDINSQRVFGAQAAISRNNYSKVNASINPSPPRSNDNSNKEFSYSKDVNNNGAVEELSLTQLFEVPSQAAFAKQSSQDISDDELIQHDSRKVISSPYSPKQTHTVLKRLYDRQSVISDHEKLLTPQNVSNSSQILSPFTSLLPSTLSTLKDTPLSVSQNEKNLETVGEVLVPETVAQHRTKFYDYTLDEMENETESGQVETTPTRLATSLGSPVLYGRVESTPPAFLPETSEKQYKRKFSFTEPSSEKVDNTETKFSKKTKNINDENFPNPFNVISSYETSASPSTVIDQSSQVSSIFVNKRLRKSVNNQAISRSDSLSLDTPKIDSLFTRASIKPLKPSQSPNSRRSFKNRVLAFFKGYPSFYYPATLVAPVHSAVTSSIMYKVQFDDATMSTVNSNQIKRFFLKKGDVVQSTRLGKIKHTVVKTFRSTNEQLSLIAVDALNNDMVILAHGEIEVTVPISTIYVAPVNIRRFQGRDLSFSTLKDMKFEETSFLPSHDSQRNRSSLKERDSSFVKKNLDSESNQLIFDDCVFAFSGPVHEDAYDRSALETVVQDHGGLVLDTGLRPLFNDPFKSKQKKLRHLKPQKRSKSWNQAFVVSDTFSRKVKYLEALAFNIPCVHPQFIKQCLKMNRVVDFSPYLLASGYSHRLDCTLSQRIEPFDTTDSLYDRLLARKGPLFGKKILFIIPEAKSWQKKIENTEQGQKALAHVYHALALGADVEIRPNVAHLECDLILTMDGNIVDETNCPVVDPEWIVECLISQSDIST
Description: co-IP; HA-Rad9 or HA-Crb2 precipitated with anti-HA antibody beads from lysates of MMS- or HU-treated S. pombe; Rad4 detected with anti-Rad4 antibodies.

Assay [2] has as its target T4, Rad9-T412A (phosphorylation site mutant) (S. pombe) (UniProt P26306).
T4 sequence: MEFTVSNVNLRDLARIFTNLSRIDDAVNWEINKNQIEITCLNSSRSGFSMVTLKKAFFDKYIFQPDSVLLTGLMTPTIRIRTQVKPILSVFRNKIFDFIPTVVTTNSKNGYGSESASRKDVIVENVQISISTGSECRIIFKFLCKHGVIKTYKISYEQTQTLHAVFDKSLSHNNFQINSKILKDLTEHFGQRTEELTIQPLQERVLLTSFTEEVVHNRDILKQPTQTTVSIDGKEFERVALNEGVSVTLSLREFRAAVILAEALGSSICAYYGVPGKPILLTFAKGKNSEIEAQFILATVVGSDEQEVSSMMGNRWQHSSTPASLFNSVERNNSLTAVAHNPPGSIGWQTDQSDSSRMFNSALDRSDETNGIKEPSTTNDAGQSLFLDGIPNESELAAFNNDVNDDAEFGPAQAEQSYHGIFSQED
Described as above.

The target in assay [3] is T2, HA-Rad9, phosphorylated at Thr412 (S. pombe). Described as above.

Results are given in words; binding and its absence hold for the method and conditions named. In cells and extracts the contact can be indirect. Some binding calls cover weakened binding; strength is not graded here. For some assays here: Sequences can lack the tags named with a protein.

With “Rad3(D2249E), kinase-inactive (from UniProt Q02099 1-2386) (enzyme)”, the binding entry with Rad26-Flag (S. pombe) was “binds”.
The same measure, in the same setting: under “Rad3 (from UniProt Q02099 1-2386) (enzyme)” stands “binds”.

B1: Rad4 (wild type) (protein, UniProt P32372 1-648)
chain: MGSSKPLKGFVICCTSIDLKQRTEISTKATKLGAAYRSDFTKDVTHLIAGDFDTPKYKFAAKSRPDIKIMSSEWIPVLYESWVQGEDLDDGLLVDKHFLPTLFKCRVCLTNIGQPERSRIENYVLKHGGTFCPDLTRDVTHLIAGTSSGRKYEYALKWKINVVCVEWLWQSIQRNAVLEPQYFQLDMPAEKIGLGAYVRLDPNTTEAKSYSENQKISKNKEKSGQSLAALAEEADLEPVIMKRGKKRDRSILWEELNNGKFEFSSRSEENSVLLDDFTPETVQPLEENELDTELNIENEAKLFKNLTFYLYEFPNTKVSRLHKCLSDNGGQISEFLSSTIDFVVIPHYFPVDELPIFSFPTVNEWWIERCLYYKKIFGIDEHALAKPFFRPSLVPYFNGLSIHLTGFKGEELSHLKKALTILGAVVHEFLGVQRSILLVNTNEPFSMKTRFKIQHATEWNVRVVGVAWLWNIIQSGKFIDQVSPWAIDKKENQEIKKFTNQNNMVFPTSDRDTRLQNSLAQQPIGHSTPHNSPSLLSVKKRQNNHIRSNTLIQLNSNSKDSTIFPRRSVTVPGDKIDTVWKSSVTKPETPTSPQEHVSYIDPDAQREKHKLYAQLTSNVDAIPPANDLQNQENGLLLITESHRKLRRR
As for B1, the binding result in assay [1] is “no binding”; with HA-Crb2 (S. pombe) it was “binds”; in assay [2] it was “no binding”; in assay [3], “binds”.

B2: Rad4 E368K (protein, UniProt P32372 1-648)
chain: MGSSKPLKGFVICCTSIDLKQRTEISTKATKLGAAYRSDFTKDVTHLIAGDFDTPKYKFAAKSRPDIKIMSSEWIPVLYESWVQGEDLDDGLLVDKHFLPTLFKCRVCLTNIGQPERSRIENYVLKHGGTFCPDLTRDVTHLIAGTSSGRKYEYALKWKINVVCVEWLWQSIQRNAVLEPQYFQLDMPAEKIGLGAYVRLDPNTTEAKSYSENQKISKNKEKSGQSLAALAEEADLEPVIMKRGKKRDRSILWEELNNGKFEFSSRSEENSVLLDDFTPETVQPLEENELDTELNIENEAKLFKNLTFYLYEFPNTKVSRLHKCLSDNGGQISEFLSSTIDFVVIPHYFPVDELPIFSFPTVNEWWIKRCLYYKKIFGIDEHALAKPFFRPSLVPYFNGLSIHLTGFKGEELSHLKKALTILGAVVHEFLGVQRSILLVNTNEPFSMKTRFKIQHATEWNVRVVGVAWLWNIIQSGKFIDQVSPWAIDKKENQEIKKFTNQNNMVFPTSDRDTRLQNSLAQQPIGHSTPHNSPSLLSVKKRQNNHIRSNTLIQLNSNSKDSTIFPRRSVTVPGDKIDTVWKSSVTKPETPTSPQEHVSYIDPDAQREKHKLYAQLTSNVDAIPPANDLQNQENGLLLITESHRKLRRR
With B2, the binding result in assay [3] is “no binding”.

B3: Rad4 C13Y-K56R (protein, UniProt P32372 1-648)
chain: MGSSKPLKGFVIYCTSIDLKQRTEISTKATKLGAAYRSDFTKDVTHLIAGDFDTPRYKFAAKSRPDIKIMSSEWIPVLYESWVQGEDLDDGLLVDKHFLPTLFKCRVCLTNIGQPERSRIENYVLKHGGTFCPDLTRDVTHLIAGTSSGRKYEYALKWKINVVCVEWLWQSIQRNAVLEPQYFQLDMPAEKIGLGAYVRLDPNTTEAKSYSENQKISKNKEKSGQSLAALAEEADLEPVIMKRGKKRDRSILWEELNNGKFEFSSRSEENSVLLDDFTPETVQPLEENELDTELNIENEAKLFKNLTFYLYEFPNTKVSRLHKCLSDNGGQISEFLSSTIDFVVIPHYFPVDELPIFSFPTVNEWWIERCLYYKKIFGIDEHALAKPFFRPSLVPYFNGLSIHLTGFKGEELSHLKKALTILGAVVHEFLGVQRSILLVNTNEPFSMKTRFKIQHATEWNVRVVGVAWLWNIIQSGKFIDQVSPWAIDKKENQEIKKFTNQNNMVFPTSDRDTRLQNSLAQQPIGHSTPHNSPSLLSVKKRQNNHIRSNTLIQLNSNSKDSTIFPRRSVTVPGDKIDTVWKSSVTKPETPTSPQEHVSYIDPDAQREKHKLYAQLTSNVDAIPPANDLQNQENGLLLITESHRKLRRR
Turning to B3, the binding entry with HA-Crb2 (S. pombe) was “no binding”; in assay [3], “binds”.

B4: Rad4(ΔC), deletion of the whole C-terminus between amino acid 498 and 648 (domain or fragment, UniProt P32372 1-497)
chain: MGSSKPLKGFVICCTSIDLKQRTEISTKATKLGAAYRSDFTKDVTHLIAGDFDTPKYKFAAKSRPDIKIMSSEWIPVLYESWVQGEDLDDGLLVDKHFLPTLFKCRVCLTNIGQPERSRIENYVLKHGGTFCPDLTRDVTHLIAGTSSGRKYEYALKWKINVVCVEWLWQSIQRNAVLEPQYFQLDMPAEKIGLGAYVRLDPNTTEAKSYSENQKISKNKEKSGQSLAALAEEADLEPVIMKRGKKRDRSILWEELNNGKFEFSSRSEENSVLLDDFTPETVQPLEENELDTELNIENEAKLFKNLTFYLYEFPNTKVSRLHKCLSDNGGQISEFLSSTIDFVVIPHYFPVDELPIFSFPTVNEWWIERCLYYKKIFGIDEHALAKPFFRPSLVPYFNGLSIHLTGFKGEELSHLKKALTILGAVVHEFLGVQRSILLVNTNEPFSMKTRFKIQHATEWNVRVVGVAWLWNIIQSGKFIDQVSPWAIDKKENQEIKK
Take B4: the binding result in assay [3] is “binds”.

B5: Rad9 as co-precipitated with Crb2 (protein, UniProt P26306 1-426)
chain: MEFTVSNVNLRDLARIFTNLSRIDDAVNWEINKNQIEITCLNSSRSGFSMVTLKKAFFDKYIFQPDSVLLTGLMTPTIRIRTQVKPILSVFRNKIFDFIPTVVTTNSKNGYGSESASRKDVIVENVQISISTGSECRIIFKFLCKHGVIKTYKISYEQTQTLHAVFDKSLSHNNFQINSKILKDLTEHFGQRTEELTIQPLQERVLLTSFTEEVVHNRDILKQPTQTTVSIDGKEFERVALNEGVSVTLSLREFRAAVILAEALGSSICAYYGVPGKPILLTFAKGKNSEIEAQFILATVVGSDEQEVSSMMGNRWQHSSTPASLFNSVERNNSLTAVAHNPPGSIGWQTDQSDSSRMFNSALDRSDETNGIKEPSTTNDAGQSLFLDGIPNESELAAFNNDVNDDAEFGPTQAEQSYHGIFSQED
B5: the binding result in the assay with HA-Crb2 (S. pombe) is “binds”.
